Results as given in the supplement of paper PMC3334620.
In all, about 33,000 sequences were measured (“E-score (-0.5 to 0.5)”: median about -0.01, highest 2% from about 0.26 on). Some of the results follow.

Target: Ste12 (UniProt P13574)
Test: PBM E-score (8-mer binding enrichment) (E-score (-0.5 to 0.5)); higher = stronger / more preferred TF binding; most listed sequences are background and not binding sites
Details: protein concentration: 200 nM; construct: GST-DNA-binding domain
Method: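 Universal 'all 10-mer' protein binding microarrays (Agilent AMADID 015681) probed with GST-tagged S. cerevisiae TFs (full-length or DBD) made by in vitro transcription/translation (PURExpress), about 100-200 nM. Bound TF was detected with fluorescent anti-GST. Each ungapped 8-mer (which stands for itself and its reverse complement) is scored by the PBM enrichment score (E-score), a modified Wilcoxon-Mann-Whitney statistic from -0.5 to +0.5, computed with the Universal PBM Analysis Suite. Scale: above 0.35 generally sequence-specific binding.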

| Sequence | PBM E-score |
| --- | --- |
| CCCAGCTC | -0.144 |
| GAATCCTC | -0.0489 |
| ACAAAGAG | -0.12 |
| CAGTCGGC | 0.0214 |
| CGGATACG | -0.00902 |
| ATCTACGG | -0.0913 |
| GTCAGGCA | -0.05 |
| ACTACATG | 0.0147 |
| ATTTCATA | 0.124 |
| CGCGGCAA | -0.026 |
| GTACTTGA | -0.239 |
| CCTCGTAG | -0.0852 |
| CTTAACGA | 0.122 |
| CGTGTTGA | -0.0467 |
| AGCTATCG | -0.253 |
| AGTTCGTG | 0.0674 |
| CGTTGCTA | -0.169 |
| CCAGCCAA | 0.0654 |
| AGCTCACT | -0.0668 |
| CAGTCAAG | -0.142 |
| GGATCCCA | -0.184 |
| GCACCTAC | -0.138 |
| TAGACCAA | 0.0602 |
| AGAACACA | -0.102 |
| AGGTTAGC | -0.211 |

| Sequence | PBM E-score |
| --- | --- |
| CTATGTGA | 0.0261 |
| CGAACATA | 0.14 |
| AGACATAG | 0.0698 |
| TCAATGAA | 0.055 |
| AGCGGCTA | -0.0915 |
| ATTGCGCC | -0.0165 |
| ACCTTCTC | 0.0171 |
| ACCTGCCG | 0.0159 |
| GGGGGGAC | -0.148 |
| CCGCTGAG | -0.236 |
| ACTTGGAC | -0.066 |
| AAAAAATC | 0.363 |
| CAGTGATG | 0.126 |
| CCGATATC | -0.0612 |
| AAGGGCTG | -0.253 |
| ACGCGGTG | 0.0169 |
| AATACAAA | 0.265 |
| GAAGATGC | 0.0101 |
| GGCGATCA | -0.186 |
| CCTATACC | -0.0407 |
| AGATTGGA | -0.02 |
| CAGACAGG | -0.0968 |
| GAACCTAA | 0.0436 |
| GGAGGGAA | -0.0917 |
| CGCCAAAC | -0.0585 |

| Sequence | PBM E-score |
| --- | --- |
| AGCCTTCA | -0.11 |
| CTAGTGAC | -0.0777 |
| TGCAGCCA | 0.0119 |
| CATGAGCC | -0.12 |
| AATCACTA | 0.104 |
| ATTGGGGA | -0.0774 |
| CGCAGTAG | -0.0747 |
| AATGCCGT | 0.0806 |
| AGGACGAA | -0.0297 |
| CTCGCCCA | 0.0131 |
| TAAAGCAA | 0.125 |
| CATTGCAA | 0.028 |
| GGTACAAA | -0.00706 |
| CTCGATGA | -0.0183 |
| AACACCTC | -0.134 |
| CGCATCGA | 0.0394 |
| AGCCAGCT | -0.179 |
| TATCACCA | -0.0658 |
| ATTGTCCG | 0.19 |
| CCATAGCG | -0.159 |
| AATTGCCA | 0.0211 |
| GTGCCGGA | 0.0744 |
| CCGTCTCG | -0.0676 |
| CTAGAGGC | -0.185 |
| ACGATCGA | -0.106 |

| Sequence | PBM E-score |
| --- | --- |
| AGTGCAGC | -0.257 |
| ATCACGGC | -0.104 |
| GTTCCTGA | -0.146 |
| AGTGACGC | -0.138 |
| AATATGAT | 0.222 |
| CGCTTTTA | 0.0855 |
| GGACGGGA | -0.205 |
| GAGTAAGA | 0.0732 |
| AACCACTA | -0.00019 |
| GCTTAACC | -0.153 |
| CACGATTC | 0.0616 |
| AACAAGGC | -0.00777 |
| CGAAACAC | 0.348 |
| GACTTCCC | -0.208 |
| GCTCGACA | -0.106 |
| CAGGCCTC | -0.239 |
| ACCTGGAG | 0.0957 |
| TACTGCAA | 0.00842 |
| CGCATAAC | 0.152 |
| ATTACGTC | 0.0379 |
| AACTTGCT | -0.0356 |
| TATTCCGA | 0.0499 |
| TGCAGGCA | -0.137 |
| TACAGTGA | 0.00578 |
| AGCAAGGC | -0.182 |

| Sequence | PBM E-score |
| --- | --- |
| CCAATCGC | -0.0665 |
| TCCAGCCA | -0.0912 |
| ACCCTTGG | -0.129 |
| ACAAGTCA | -0.0869 |
| AGATGCTA | 0.0477 |
| ACACGTGG | -0.00035 |
| AAATGCAT | 0.138 |
| ATGACAGG | -0.0808 |
| CTGTCGGA | -0.204 |
| GGCATAAC | 0.05 |
| AACATGGG | 0.198 |
| ACCCGGGG | -0.0905 |
| TAGTGGGA | -0.0356 |
| GATTACGC | -0.024 |
| TCAGGAAA | -0.0165 |
| ATATTGGA | -0.0137 |
| AAGTGATC | -0.0308 |
| CTCGGTCA | 0.0667 |
| CCGAGCCA | -0.0123 |
| TAGTATGA | 0.112 |
| CGAAAGAG | -0.00574 |
| GCAAATGA | -0.0783 |
| AATTTGCT | 0.0493 |
| CAAATGCA | -0.211 |
| AATTTAAT | 0.159 |

| Sequence | PBM E-score |
| --- | --- |
| GCGAGAGC | 0.0234 |
| AGACAATA | 0.163 |
| CATTATCA | 0.0126 |
| ACCGCTAA | 0.147 |
| AGCGAAAG | 0.0699 |
| GAAAGTAC | -0.00655 |
| AGAGCCCC | -0.201 |
| CCACATAC | 0.00728 |
| ACACTTGA | -0.0763 |
| TCATAGAA | 0.257 |
| GACGATAC | -0.0155 |
| GACCAACA | 0.0581 |
| ATAGAAGA | -0.0128 |
| ACATAGGT | -0.0419 |
| GCATCATA | 0.0871 |
| ATCACGCC | -0.129 |
| ACACACCA | 0.0664 |
| GTAGACGA | -0.129 |
| CCTACGCC | -0.181 |
| AGAGCGAG | -0.078 |
| GACGTGAC | -0.0822 |
| CGGACGTC | -0.081 |
| ACCCAGAT | 0.0125 |
| ATAAGTCC | -0.0367 |
| TCGAAGCA | -0.118 |

| Sequence | PBM E-score |
| --- | --- |
| CGCCATAA | -0.108 |
| GAGAACAC | -0.0603 |
| GAACCACA | 0.0278 |
| CGGTACGC | -0.0607 |
| GGGCAGTA | -0.0196 |
| GGGTCACA | -0.169 |
| CCTGTTCC | -0.055 |
| CGTCGCAC | 0.0641 |
| ACGGGATG | -0.0724 |
| AGATTTCA | 0.148 |
| TATTAAGA | 0.0777 |
| ATCTATTC | 0.0368 |
| GTATTTGA | 0.178 |
| GGAGCGAA | 0.0768 |
| ATGGCATC | -0.0571 |
| CCCAAAGA | 0.18 |
| CAGGTGTC | -0.16 |
| AGCCTCTG | -0.135 |
| GATCTAGA | -0.0902 |
| ACATCCAT | -0.0954 |
| AACTAAGA | 0.123 |
| GAAAGCGA | 0.0278 |
